Source: PubChem BioAssay AID1508649 (National Center for Advancing Translational Sciences (NCATS), 2021)
Screen size: about 43,000 compounds; about 830 (1.9%) were called active. Inconclusive means that the source gave no clear call. Such entries were picked first, then a sample of the others. The calls were made as follows: active = clear falling dose curves in both reporters; inconclusive = both reporters move, but less clearly or upward; inactive = either reporter flat; the % is the NLuc reporter signal. Potencies of inconclusive entries are left out as doubtful fits.

Assay: Cell-based coincidence reporter assay to measure PMP22 gene transcription in S16 Pmp22-F2sN cells - Primary screen
Settings: S16 Pmp22-F2sN Schwann cells (luciferase reporters placed in the Pmp22 gene), FLuc/NLuc coincidence luminescence, 24 h; measured here: NLuc reporter readout, at 57.5 µM (top of the series); activity change, negative = inhibition: at the top concentration
How it was run: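 Rat S16 Pmp22-F2sN cells, 500-1,000/well in phenol red-free DMEM + 10% FBS, compound-treated 24 h (37C, 5% CO2). Luminescence: FLuc read, Stop&Glo added, NLuc read.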
% is scaled to controls: 0 for no effect and ±100 for the full control effect; potency is read from the fitted curve at half-maximal effect; tags tell the direction and shape of the fitted curve.

Structure (SMILES)	Potency	activity change, negative = inhibition
CCOc1ccccc1CNC(=O)c1ccc(NC(=O)N2CCSc3ncccc32)cc1	inconclusive [phenotype inactive, single point]	–
Fc1ccc(-n2ncc3c(N4CCC(Cc5ccccc5)CC4)ncnc32)cc1	–	inactive: -0.131%
COc1ccccc1CNC(=O)Cc1csc2nc(-c3ccccc3)cn12	–	inactive: 7.51%
O=C(Cn1cnc2c(oc3ccccc32)c1=O)Nc1ccc(OC(F)(F)F)cc1	inconclusive [phenotype inactive, single point]	–
COc1ccccc1NC(=O)CN1CCCN(S(=O)(=O)c2ccc(Br)cc2)CC1	inconclusive [phenotype inactive, partial curve]	–
CCN1CCOC(=O)C1CC(=O)Nc1cc(C)cc(C)c1 (stereo unspecified)	inconclusive [phenotype inactive, single point]	–
Cc1ccc(C)c(NC(=O)CSc2c3c(nc4ccc(Cl)cc24)CCCC3)c1	active: 15 µM	–
COc1ccc(NC(=O)CN2CCCN(Cc3ccc(Cl)cc3)S2(=O)=O)cc1Cl	inconclusive [phenotype inactive, single point]	–
O=C(Nc1ccc2nc(SCC(=O)N3CCc4ccccc43)sc2c1)c1ccc(F)cc1	inconclusive [phenotype inactive, single point]	–
CCCc1nc(SC)ncc1C(=O)N1CCN(c2ccc(Cl)cc2)CC1	inconclusive [phenotype inactive, single point]	–
CCOc1ccccc1C(=O)Nc1ccc2c(c1)N(C)C(=O)c1ccccc1S2	inconclusive [phenotype inactive, full curve, poor fit]	–
Cc1ccc(C)c(NC(=O)CN2C(=O)COc3ccc(Cl)cc32)c1	inconclusive [phenotype inactive, single point]	–
COc1cc(NC(=O)Cn2nc(C(F)(F)F)c3c2CCCC3)c(OC)cc1Cl	inconclusive [phenotype inactive, partial curve]	–
CCCSc1ncc(Cl)c(C(=O)Nc2sc3c(c2C(=O)NCCOC)CCCC3)n1	inconclusive [phenotype inactive, single point]	–
COc1ccc2nc(N(Cc3cccnc3)C(=O)c3ccc4c(c3)OCCO4)sc2c1	–	inactive: 4.8%
Cc1ccc(CNS(=O)(=O)c2ccc3c(c2)CCN3S(C)(=O)=O)cc1	–	inactive: 2.59%
CCOc1ccc(NS(=O)(=O)c2ccc3[nH]c4c(c3c2)CCCC4)cc1	inconclusive [phenotype inactive, single point]	–
CCCCNC(=O)c1cc(Sc2ccc(OCC)cc2)nc2ccccc12	inconclusive [phenotype inactive, single point]	–
COc1ccccc1N1CCN(c2csc3ccc(Cl)cc3c2=O)CC1	–	inactive: -21.9%
Cc1cccc(N2CCN(C(=O)CSCc3ccc(F)cc3)CC2)c1C	–	inactive: -19%
O=C(NCCc1ccc(Cl)cc1)C(=O)NCC(c1ccco1)S(=O)(=O)c1ccc(Cl)cc1 (stereo unspecified)	inconclusive [phenotype inactive, partial curve, poor fit]	–

Structure (SMILES)	Potency	activity change, negative = inhibition
Cc1ccc2c(c1)c(=O)c(C(=O)c1ccc3c(c1)OCO3)cn2Cc1ccc(Cl)cc1	inconclusive [phenotype inactive, single point]	–
CC(=O)CSc1nnc2cc(C)c3cc(C)cc(C)c3n12	inconclusive [phenotype inactive, single point]	–
Cc1ccc(S(=O)(=O)N2CCC(C(=O)Nc3ccc(C)c(Cl)c3)CC2)cc1	–	inactive: 5.97%
CCCN(CCC)S(=O)(=O)c1ccc(C(=O)Nc2sc3c(c2C(=O)OC)CCN(CC)C3)cc1	inconclusive [phenotype inactive, single point]	–
CC(C)c1cnc2c(c1SCC(=O)Nc1cccc(F)c1)c(=O)n(C)c(=O)n2C	inconclusive [phenotype inactive, single point]	–
CCOC(=O)c1cccc(NS(=O)(=O)c2ccc(-c3cnc(C4CC4)o3)cc2)c1	active: 10.6 µM	–
COc1ccc2nc(NC(=O)c3nc(SC(C)C)ncc3Cl)sc2c1	–	inactive: 1.35%
CCCCNC(=O)CCCn1c(=O)c2ccccc2n(Cc2cccc(Cl)c2)c1=O	inconclusive [phenotype inactive, single point]	–
Cc1ccc(OCC(=O)Nc2ccc3nc(SCC(=O)N4CCOCC4)sc3c2)cc1	–	inactive: -19.7%
Clc1ccc(C(c2ccccc2)c2c[nH]c3ccccc23)s1 (stereo unspecified)	inconclusive [phenotype inactive, single point]	–
CCc1ccc(CNC(=O)C2Cc3cc(S(=O)(=O)N4CCCCCC4)ccc3N2C(C)=O)cc1 (stereo unspecified)	inconclusive [phenotype inactive, single point]	–
COc1ccc2c(c1)CC(C(=O)Nc1cc(Cl)ccc1C)CO2 (stereo unspecified)	inconclusive [phenotype inactive, single point]	–
COc1cc(NC(=O)Nc2cccc(-c3noc(C)n3)c2)cc(OC)c1OC	–	inactive: -7.89%
Cc1ccc(S(=O)(=O)c2nc(S(C)(=O)=O)sc2N(C)Cc2ccccc2)cc1	inconclusive [phenotype inactive, single point]	–
CCc1ccc(NS(=O)(=O)c2cc(-c3cnc(C4CC4)o3)ccc2C)cc1	–	inactive: -51%
CCOC(=O)CSc1nnc2n(-c3ccccc3)c(=O)c3c4c(sc3n12)CC(C(C)(C)C)CC4 (stereo unspecified)	inconclusive [phenotype inactive, single point]	–
CCCCCSc1nc2sc3c(c2c(=O)n1-c1ccc(OC)cc1)CCN(C(C)=O)C3	inconclusive [phenotype inactive, single point]	–
O=C(CC1C(=O)N(c2ccc(F)cc2)C(=O)N1Cc1ccc2c(c1)OCO2)Nc1ccc(Cl)cc1 (stereo unspecified)	inconclusive [phenotype inactive, single point]	–
Cc1ccc(-c2csc(-c3cc4c([nH]c3=O)CC(c3ccccc3)CC4=O)n2)cc1 (stereo unspecified)	active: 6.31 µM	–
Fc1ccc(NCc2ccccc2-c2nnc(-c3ccccc3Cl)o2)cc1	–	inactive: -7.5%
CC(C)N(Cc1nc(-c2ccc(Cl)cc2)no1)C(=O)c1ccc(C(C)(C)C)cc1	inconclusive [phenotype inactive, single point]	–

Structure (SMILES)	Potency	activity change, negative = inhibition
Cc1ccc2ncc(C(=O)c3ccc(C)c(C)c3)c(S(=O)(=O)c3ccc(F)cc3)c2c1	inconclusive [phenotype inactive, single point]	–
Cc1cc(C)cc(-n2c(C)cc(C(=O)C(=O)Nc3ccccc3F)c2C)c1	inconclusive [phenotype inactive, partial curve, poor fit]	–
CCc1ccccc1NC(=O)CN(c1ccccc1)S(=O)(=O)c1ccsc1C(=O)OC	–	inactive: -1.97%
Cc1ccc2nc3c(cc(C#N)c(=O)n3-c3nnc(SCc4ccccc4)s3)c(=O)n2c1	inconclusive [phenotype inactive, single point]	–
Cc1cccc(CSc2ncc(Cl)c(C(=O)Nc3nc4ccc(F)cc4s3)n2)c1	inconclusive [phenotype inactive, single point]	–
CCCn1c2ccccc2c2cnn(CC(=O)N3CCN(c4ccccc4)CC3)c(=O)c21	–	inactive: 7.08%
CCCCN1C(=O)C(O)(CC(=O)c2ccc(C(C)(C)C)cc2)c2ccccc21 (stereo unspecified)	inconclusive [phenotype inactive, single point]	–
Cc1ccc(N(CC(=O)Nc2ccc(Cl)cc2)S(=O)(=O)c2cccc3nonc23)cc1	inconclusive [phenotype inactive, single point]	–
CCC(Sc1nnc(C)n2c1cc1occc12)C(=O)Nc1ccccc1OC (stereo unspecified)	inconclusive [phenotype inactive, partial curve, poor fit]	–
Cc1cccc(Cc2c(C)nc3c(-c4ccccc4)c(C)[nH]n3c2=O)c1	inconclusive [phenotype inactive, single point]	–
CCN(CC)CCNC(=O)C1CCN(c2nn3cc(-c4ccc(F)cc4)nc3s2)CC1	inconclusive [phenotype inactive, single point]	–
CCOc1ccc(CNCc2c(C(=O)O)c(C)n(Cc3cccc(OC)c3)c2C)cc1OC	–	inactive: -23.9%
Cc1nc2sccn2c(=O)c1S(=O)(=O)Nc1ccc(N2CCOCC2)c(Cl)c1	inconclusive [phenotype inactive, single point]	–
CCc1ccc(C(=O)c2cn(CC(=O)Nc3ccc4c(c3)OCO4)c3ccc(OC)cc3c2=O)cc1	–	inactive: -7.75%
COc1ccc(-c2noc(N3CCC(C(=O)N4CCN(c5cccc(C)c5C)CC4)CC3)n2)cc1	inconclusive [phenotype inactive, single point]	–
COc1ccc2c(c1)c(N1CCCC1=O)c(C(=O)Nc1ccccc1C(F)(F)F)n2C	inconclusive [phenotype inactive, single point]	–
CCc1nnc2c(N3CCN(c4cc(Cl)ccc4C)CC3)nc3ccccc3n12	–	inactive: -3.33%
CCOc1ccc(CNS(=O)(=O)c2ccc3c(c2)CCCN3C(C)=O)cc1OC	inconclusive [phenotype inactive, single point]	–
Cc1cc(C)c(NC(=O)Cn2cnc3c(oc4ccccc43)c2=O)c(C)c1	inconclusive [phenotype inactive, single point]	–
